Assay results published in the supplement of paper PMC12217912.
Some of the results follow. Sequences were assembled here from the parent chain. Values near 0.05 are background.

B1: TEV protease; numbered along this chain (parent)
chain: MGESLFKGPRDYNPISSSICHLTNESDGHTTSLYGIGFGPFIITNKHLFRRNNGTLVVQSLHGVFKVKDTTTLQQHLVDGRDMIIIRMPKDFPPFPQKLKFREPQREERICLVTTNFQTKSMSSMVSDTSCTFPSGDGIFWKHWIQTKDGQCGSPLVSTRDGFIVGIHSASNFTNTNNYFTSVPKNFMELLTNQEAQQWVSGWRLNADSVLWGGHKVFMVKPEEPFQPVKEATQL

Variants of: B1
Test: raw area under fraction-flipped curve 0-4 h after induction (AUC4h, not background-subtracted), DNA-recorder readout of cleavage of the substrate (dimensionless); higher = more cleavage of the substrate by the protease variant
Details: temperature: 34 °C; time window: 0-4 h after rhamnose induction
Method: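 In vivo DNA recorder in E. coli TOP10(DE3) ΔrhaA at 34 °C. Each TEVp single-site mutant (parent TEVp 0) is paired with a single-site variant of the 7-mer TEVs (canonical ENLYFQ|S). The substrate sits between flexible linkers in a Bxb1-sfGFP-TEVs-SsrA fusion, so cleavage stabilises Bxb1 and speeds flipping of a recombination array, read by NGS. The value is the raw area under the fraction-flipped curve over 0-4 h after rhamnose induction (AUC4h), with ≥20 reads per time point. It is not background-subtracted; inactive controls average about 0.047.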
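Note: Bxb1 expression induced with 0.2% (w/v) L-rhamnose at OD600 near 0.5, cultures sampled hourly, flipped fraction per protease–substrate barcode pair counted by paired-end Illumina sequencing.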

Variant | area with substrate ENLYFAS | area with substrate ENLYFCS | area with substrate ENLYFFS | area with substrate ENLYFGS | area with substrate ENLYFIS | area with substrate ENLYFKS | area with substrate ENLYFLS | area with substrate ENLYFMS | area with substrate ENLYFNS | area with substrate ENLYFPS | area with substrate ENLYFRS | area with substrate ENLYFVS | area with substrate ENLYFES | area with substrate ENLYFTS | area with substrate ENLYFWS | area with substrate ENLYFDS | area with substrate ENLYFYS | area with substrate ENLYFHS | area with substrate ENLYFSS
V217S | 0.0569 | 0.0742 | 0.0488 | 0.0511 | 0.0616 | 0.0601 | 0.068 | 0.0644 | 0.0604 | 0.0597 | 0.0583 | 0.0469 |  |  |  |  |  |  | 
M219N | 0.0573 | 0.0535 |  |  | 0.0578 | 0.0416 | 0.0647 | 0.0638 | 0.0845 | 0.0551 |  | 0.0645 | 0.0546 | 0.062 | 0.0465 |  |  |  | 
L99F | 0.08 |  | 0.058 | 0.0502 | 0.0407 | 0.0608 | 0.0726 | 0.0524 |  | 0.0614 |  |  | 0.048 |  | 0.0403 | 0.0537 | 0.0528 |  | 
S169P | 0.0631 | 0.0679 | 0.0568 |  | 0.0689 | 0.0754 | 0.0487 |  | 0.0626 | 0.0791 |  | 0.0509 | 0.0542 |  | 0.058 | 0.0665 |  | 0.0428 | 0.0608
N178G | 0.0065 |  | 0.0615 |  | 0.0683 |  |  |  |  | 0.0525 | 0.076 |  | 0.0567 | 0.0616 | 0.0561 |  |  | 0.0641 | 0.0575
Y179C | 0.0596 |  | 0.0712 |  | 0.064 |  | 0.0542 | 0.0526 | 0.0666 | 0.0614 | 0.0669 | 0.0463 | 0.1 |  | 0.0546 |  |  | 0.0445 | 
L73N | 0.0592 |  |  |  | 0.0438 |  |  | 0.0576 | 0.0595 | 0.0604 | 0.0663 | 0.0602 |  | 0.0472 |  |  |  |  | 
Q146S | 0.0756 | 0.0592 |  |  | 0.046 |  | 0.055 | 0.0621 |  | 0.0682 |  |  |  |  |  |  | 0.0462 |  | 0.0599
Q197M | 0.0449 | 0.0493 |  |  |  |  |  | 0.0666 |  |  |  |  | 0.0631 |  | 0.07 |  |  |  | 
R81Y | 0.0585 | 0.0578 | 0.0658 | 0.079 | 0.0527 | 0.0534 | 0.0603 | 0.0589 | 0.0551 | 0.0557 | 0.0565 |  | 0.0733 | 0.0686 |  | 0.0892 | 0.0565 | 0.0517 | 
P225M | 0.0617 | 0.0654 | 0.0749 | 0.0499 | 0.0599 | 0.0633 | 0.0526 | 0.0614 | 0.0691 | 0.061 |  | 0.0666 | 0.0896 | 0.0582 | 0.0584 | 0.0676 | 0.0524 |  | 
Q194Y | 0.0665 |  |  |  | 0.0574 | 0.0642 |  |  | 0.0584 | 0.0645 |  | 0.0543 | 0.0668 |  |  | 0.0531 | 0.0603 | 0.0684 | 
V217T | 0.0596 | 0.0473 | 0.0573 |  | 0.0616 |  |  | 0.0449 |  | 0.0501 |  | 0.0552 | 0.0738 |  |  | 0.0572 |  |  | 
D27N | 0.0596 | 0.0765 | 0.0545 |  | 0.0607 |  | 0.0539 | 0.0637 | 0.0489 | 0.0612 |  | 0.065 | 0.0585 | 0.0581 |  |  | 0.0473 | 0.0588 | 0.0714
G138K | 0.0623 |  |  |  | 0.0575 |  | 0.0659 | 0.0576 | 0.075 | 0.0658 | 0.0501 | 0.0553 | 0.0579 | 0.0613 |  |  |  |  | 
